The values that follow come from the supplement of paper PMC10126150.

Values marked as one replicate rest on one cluster of the flow cell; about a third of the high ones do not repeat.
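Note: ATP exposure 15 min at 22 °C before imaging.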

The test system of the data set is ATP. The data set can be described thus: switch fluorescence ratio, 500 uM ATP over buffer (Cy3 cluster intensity, sum of 5 cycles each) (fold (ratio)); higher = stronger signal-on switching upon ATP binding; sequences stand for … in TCGTCGGCAGCGTCAGATGTGTATAAGAGACAGTTTTTTTTTTTTTTTTTTTTTTTTT…TC. The following applies: aptamer strand: ATP DNA aptamer (quencher-CACCTGGGGGAGTATTGCGGAGGAAGG + anchor), 100 nM annealed; ATP concentration: 500 uM; one replicate. The gist of the method: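 Between each of five buffer/ATP cycles, the flow-cell was stripped with NaOH and re-annealed. Each cycle imaged Cy3-labelled switching-strand clusters, annealed to 100 nM quencher-labelled ATP aptamer on a modified Illumina MiSeq flow-cell, first in selection buffer and then after 15 min with 500 uM ATP at 22 °C. The fluorescence ratio is summed target-cycle over summed buffer-cycle Cy3 intensity per cluster, averaged per switch-domain sequence, with clusters outside 100-1000 RFU excluded.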
Take CAGCCGTTGA: the switch fluorescence ratio turned out to be 1.01.

For CTGGGTTCAT, the switch fluorescence ratio was 0.982.

Regarding GGGGCCTACG, the switch fluorescence ratio came to 1.12.

Consider TTGAGGCTGC, for which the switch fluorescence ratio was 0.994.

With AGCAGGGGGC, the switch fluorescence ratio stood at 0.993.

In the case of TGTGGTGGG, the switch fluorescence ratio turned out to be 1.02.

On to ATGGGAGC, for which the switch fluorescence ratio stood at 1.05.

Consider CCAATCGCCA, for which the switch fluorescence ratio was determined as 1.8.

On to TTGCGTGTAC, for which the switch fluorescence ratio was determined as 1.03.

Take CTGAGACTGA: the switch fluorescence ratio was 1.01.

Regarding CTGCAAAGTT, the switch fluorescence ratio was 1.08.

For ACTTTTAGCT, the switch fluorescence ratio turned out to be 1.03.

TTTCGAGGTA: the switch fluorescence ratio worked out at 1.

Regarding ACGAAAGGGC, the switch fluorescence ratio worked out at 1.05.

As for ATCGGGACTA, the switch fluorescence ratio stood at 0.985.

As for GAGACAAGTG, the switch fluorescence ratio turned out to be 0.991.

Take CAATCAGTAC: the switch fluorescence ratio is 1.21.

TGATTGACGT: the switch fluorescence ratio came to 1.05.

Take GCATAGATAA: the switch fluorescence ratio turned out to be 0.99.

Take CTGGACCATT: the switch fluorescence ratio is 1.01.

Consider CAATTAGGGC, for which the switch fluorescence ratio amounted to 1.03.

Take AGGAAATTAA: the switch fluorescence ratio worked out at 1.04.

Turning to CAGAATTTTG, the switch fluorescence ratio stood at 0.974.

For TAAGCGTGGA, the switch fluorescence ratio was found to be 1.05.

Consider CCCAGGCGAC, for which the switch fluorescence ratio came out at 1.36.

As to ATGGCTCAGG, the switch fluorescence ratio was 1.05.

In the case of GGTTCGTATC, the switch fluorescence ratio was found to be 0.977.

As for ATTTGAATT, the switch fluorescence ratio worked out at 0.988.

For GACTGCGGCG, the switch fluorescence ratio was determined as 0.976.

Consider ACACGTTCGT, for which the switch fluorescence ratio turned out to be 0.98.

Regarding CGCATTGGGT, the switch fluorescence ratio turned out to be 1.09.

With GTTTTCCGGC, the switch fluorescence ratio came to 1.02.

Take TTTACGGAAT: the switch fluorescence ratio stood at 1.12.

For CGAGTCACGA, the switch fluorescence ratio came to 1.06.

For TTGCTTATGT, the switch fluorescence ratio was determined as 1.02.

For the sequence CAGGTTAGGA, the switch fluorescence ratio is 1.03.

Turning to CGGGTTTA, the switch fluorescence ratio came to 0.985.

With CACGGAGACG, the switch fluorescence ratio is 0.989.

Turning to ATAAACCTCT, the switch fluorescence ratio came to 1.08.

Take AAGAAGGT: the switch fluorescence ratio stood at 1.

Consider CCCTCTGATA, for which the switch fluorescence ratio was 1.19.

In the case of ATCTGCGCAG, the switch fluorescence ratio came to 1.05.

As to AGAGCTCCTA, the switch fluorescence ratio is 0.959.

Take GACGCTCGCT: the switch fluorescence ratio came out at 1.23.

Take AGCAGAGTAT: the switch fluorescence ratio was determined as 0.962.

With TAATTGCTTG, the switch fluorescence ratio came to 0.997.

On to TGAGTCTAAG, for which the switch fluorescence ratio amounted to 0.984.

For TAGCAAAGGA, the switch fluorescence ratio was found to be 1.

Consider GTGGTAGTAT, for which the switch fluorescence ratio was 0.983.

On to TCCGGGGTAT, for which the switch fluorescence ratio came out at 1.06.

As for CGGCCGATCT, the switch fluorescence ratio worked out at 0.994.

Turning to TTTGAGTTAG, the switch fluorescence ratio is 0.973.

In the case of CGGTAGTAAA, the switch fluorescence ratio is 1.03.

Regarding CATGAAATG, the switch fluorescence ratio stood at 0.97.

With TAACTATCGA, the switch fluorescence ratio worked out at 0.977.

GACTAAAAGT: the switch fluorescence ratio was 0.957.

As for CCTAGGAGCT, the switch fluorescence ratio was found to be 1.07.

As for GTTGAGGTGC, the switch fluorescence ratio is 0.965.

Take GTGTGAGAAA: the switch fluorescence ratio was found to be 0.985.

With CGCACCGGGG, the switch fluorescence ratio worked out at 1.07.

For CTAACGCCGC, the switch fluorescence ratio is 1.95.

Regarding GTAGGTATAG, the switch fluorescence ratio came out at 1.

As for ATCACTCCCT, the switch fluorescence ratio amounted to 1.49.

Turning to GGCCCCCGCA, the switch fluorescence ratio is 1.76.

As to GCCCATAGGT, the switch fluorescence ratio came to 0.994.

Turning to TCCGAAATTG, the switch fluorescence ratio worked out at 1.41.

On to TAGACCTTA, for which the switch fluorescence ratio is 1.06.

Regarding ATTGTGAAT, the switch fluorescence ratio is 0.968.

As for TGGGAGCTGT, the switch fluorescence ratio came to 0.987.

Regarding GGTAGCCACC, the switch fluorescence ratio is 1.05.

GTTCTGCGAT: the switch fluorescence ratio turned out to be 1.21.

On to TTTGGCAGAG, for which the switch fluorescence ratio came out at 1.04.

Consider ACCATGAGAT, for which the switch fluorescence ratio was 1.

With GTAAAGTCCG, the switch fluorescence ratio worked out at 0.955.

AGTCTAGATT: the switch fluorescence ratio stood at 0.984.

Regarding GAAAAGCCCA, the switch fluorescence ratio came out at 1.02.

Consider GGAGCAAGGT, for which the switch fluorescence ratio amounted to 3.81.

As for TTACGTACAA, the switch fluorescence ratio came to 1.48.

Take ACCCTTGAAA: the switch fluorescence ratio came out at 0.992.

Regarding TCAGATTTG, the switch fluorescence ratio turned out to be 0.996.

TCGGCATTCC: the switch fluorescence ratio was determined as 1.76.

As for TGAGTGTCAA, the switch fluorescence ratio stood at 0.972.

For the sequence CCATTGTATT, the switch fluorescence ratio was 0.992.

On to GCCCCACACG, for which the switch fluorescence ratio worked out at 2.09.

As to TGAAACCATC, the switch fluorescence ratio came out at 1.1.

In the case of GGAGCCTG, the switch fluorescence ratio is 1.11.

Take CTATTTGTAC: the switch fluorescence ratio stood at 1.04.

With TTATTGGAA, the switch fluorescence ratio turned out to be 1.01.

Take AGGCTTATG: the switch fluorescence ratio stood at 0.957.

Turning to GTTGAATAGT, the switch fluorescence ratio amounted to 1.01.

As for CGGTCAGATT, the switch fluorescence ratio amounted to 0.997.

Consider CCTGAGCCGT, for which the switch fluorescence ratio worked out at 1.1.

As to GCAGCCATTG, the switch fluorescence ratio came to 1.01.

On to TGGTAATGCC, for which the switch fluorescence ratio was found to be 1.06.

Consider ATATGTAGGG, for which the switch fluorescence ratio turned out to be 0.985.

Turning to TTGCTAGACC, the switch fluorescence ratio was 1.02.

As for AAAGCCACAT, the switch fluorescence ratio was determined as 1.03.

Turning to GCATCATGGG, the switch fluorescence ratio was determined as 0.964.

Regarding TCTATGCTGA, the switch fluorescence ratio is 1.66.

AGCGCGCGTT: the switch fluorescence ratio was 0.994.

Take TCCAGATATC: the switch fluorescence ratio was determined as 0.984.

On to TTATCTGG, for which the switch fluorescence ratio is 0.965.

Consider CAACAAGTAA, for which the switch fluorescence ratio worked out at 1.02.

As for TAATAGTGCC, the switch fluorescence ratio came out at 1.01.

As for AAACGCGACA, the switch fluorescence ratio worked out at 1.2.

As for CGCTGCGGGT, the switch fluorescence ratio came out at 1.03.

As for CGAGGGACT, the switch fluorescence ratio was 1.65.

AGCTAACAAA: the switch fluorescence ratio was 0.992.

As for AAAGAGGGGC, the switch fluorescence ratio came to 0.993.

In the case of AAACATTAGG, the switch fluorescence ratio came out at 1.01.

In the case of GTCGCAGTGG, the switch fluorescence ratio worked out at 1.04.

With TGGGTCGCTG, the switch fluorescence ratio stood at 1.02.

Take GATCCAAATT: the switch fluorescence ratio stood at 1.

With GATGTTTTGC, the switch fluorescence ratio came to 1.02.

With GAACCAAAAT, the switch fluorescence ratio came out at 1.06.

For the sequence CTGATACCTG, the switch fluorescence ratio was found to be 1.03.

Consider ACTAAAGCAT, for which the switch fluorescence ratio was determined as 1.01.

Take ACGTATTGTT: the switch fluorescence ratio worked out at 1.09.

As for TATACTACCT, the switch fluorescence ratio came to 1.34.

For the sequence GGAGTGGAAG, the switch fluorescence ratio stood at 0.976.
